# Reference: PubChem BioAssay AID686971 (National Center for Advancing Translational Sciences (NCATS), 2013)
# About 7,500 (2.1%) of roughly 360,000 compounds were called active. Inconclusive results, whose numbers are uncertain, are shown with a selection of clear calls. Calls follow the shape of the dose curve; as a rule, active = well fitted cell-killing curve with a large enough effect; inconclusive = small, poorly fitted or top-dose-only effect, or effect the other way, or another doubt; inactive = no such curve, though single readings can be large or run the other way. No potency is given beside an inconclusive call; the fits are too rough.
# Assay: qHTS for induction of synthetic lethality in tumor cells producing 2HG: qHTS for the HT-1080-IDH1KD cell line
# Conditions: HT-1080 IDH1 knockdown viability, ATP luminescence, 48 h; series mostly up to 46.1 µM
# Method in brief: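 HT-1080-IDH1KD cells (IDH1 knocked down), 750/well in RPMI with 5% FBS, treated with compound 48 h at 37 degrees C. Viability by CellTiter-Glo luminescence, normalised to DMSO and no-cell wells; concentration-response curves classed.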
# Potency is read from the fitted curve at half-maximal effect; tags tell the direction and shape of the fitted curve.
row,SMILES,Potency
1,O=C(Nc1cc2c(oc1=O)CCCC2=O)c1ccc(Cl)cc1,inactive
2,O=C(N=C1SC2CS(=O)(=O)CC2N1c1ccc(F)cc1F)C1CC1 (stereo not drawn),inactive
3,CCN1C/C(=C\c2cccc([N+](=O)[O-])c2)C(=O)/C(=C/c2cccc([N+](=O)[O-])c2)C1,active: 2.31 µM
4,COc1ccc(C2=NOC(C(=O)NCc3cccnc3)C2)cc1 (stereo not drawn),inactive
5,Cc1nn(CC(=O)NC2CCCCC2)c(C)c1[N+](=O)[O-],inactive
6,CC(C)(C)c1ccccc1NC(=O)c1ccc2c(c1)SC1=NS(=O)(=O)CCN12,inactive
7,COc1ccc(-c2nc3c4ccccc4ccn3c2Cc2ccsc2)cc1OC,"inconclusive [cytotoxic, single point]"
8,Cc1nn(C(C)(C)C)c(OC(=O)c2cccs2)c1S(=O)(=O)c1ccccc1,"inconclusive [cytotoxic, single point]"
9,CCOc1ccccc1NC(=O)c1ccc2[nH]c(C)c(C)c2c1,"inconclusive [cytotoxic, partial curve, poor fit]"
10,COC(=O)[C@]12CCCCC=C1N(Cc1ccccc1)C(=O)[C@H](CC(=O)NCC13CC4CC(CC(C4)C1)C3)C2,"inconclusive [cytotoxic, single point]"
11,C=C1C(=O)[C@]23C[C@H]1CC[C@H]2[C@]1(C)[C@@H](OC(C)=O)CC[C@@](C)(C(=O)O)[C@H]1C[C@@H]3OC(C)=O,active: 6.51 µM
12,Oc1ccccc1NCC(O)Cn1ccc2ccccc21 (stereo not drawn),"inconclusive [cytotoxic, single point]"
13,COc1ccc(S(=O)(=O)N(C)C)cc1NCC(=O)Nc1cccc2ccccc12,inactive
14,COc1nc(N)nc(NC23CC4CC(CC(C4)C2)C3)n1,inactive
15,O=C(c1ccco1)N1CCN(C2c3ccccc3-c3ccccc32)CC1,"inconclusive [cytotoxic, single point]"
16,COc1ccc(/C=N/NC(=O)c2cccnc2)cc1COc1ccc([N+](=O)[O-])c(C)c1,active: 2.06 µM
17,CCc1c(-c2cccc(Cl)c2)ncn1Cc1cccc(-c2ccccc2)c1,"inconclusive [cytotoxic, single point]"
18,O=C/C=C/c1c(-c2ccccc2)cc2oc3ccccc3cc1-2,active: 20.6 µM
19,O=C(NNC(=S)NC(=O)c1ccc(Br)cc1)c1cccc([N+](=O)[O-])c1,"inconclusive [cytotoxic, single point]"
20,COc1ccc(NS(=O)(=O)c2cc(Br)cc3c2N(C(C)=O)CC3)cc1,active: 11.6 µM
21,O=C(O)c1ccc(N2CCCCCC2)c(N2C(=O)c3ccccc3C2=O)c1,inactive
22,O=C(NCC(c1cccs1)N1CCOCC1)c1cccc([N+](=O)[O-])c1 (stereo not drawn),"inconclusive [cytotoxic, single point]"
23,CCCCC(=O)Nc1ccc(C(=O)N(CC)c2ccccc2C)cc1,"inconclusive [cytotoxic, single point]"
24,O=C(CCCN1C(=O)/C(=C/c2ccccc2Cl)SC1=S)NNC(=O)c1ccccc1Cl,"inconclusive [cytotoxic, single point]"

row,SMILES,Potency
1,COc1ccc(/C=C/C(=O)c2ccccc2)cc1Cn1nnc2ccccc21,"inconclusive [cytotoxic, single point]"
2,O=C(COC(=O)CNC(=O)c1ccco1)NCc1ccc(F)cc1,inactive
3,Cc1ccc(CNC(=O)C(=O)NCCC2CCCCN2S(=O)(=O)c2ccc(C)cc2)cc1 (stereo not drawn),inactive
4,Nc1cccc2nc3ccccc3cc12,active: 13 µM
5,CCc1nc2ccccc2c(C(=O)OCC(=O)Nc2cccc(S(=O)(=O)N3CCOCC3)c2)c1C,"inconclusive [cytotoxic, single point]"
6,CC(C)(C)C(=O)N1CCC(O)(CS(=O)(=O)c2ccc(Cl)c(Cl)c2)CC1,inactive
7,CCN(CC)CCCC(C)NC(=O)c1cc(=O)c2ccccc2o1 (stereo not drawn),inactive
8,Clc1ccccc1CSc1nnc(-c2ccncc2)o1,inactive
9,Cc1cc(NC(=O)c2ccccc2C)n(-c2cccc(F)c2)n1,inactive
10,CCOc1ccc(CNC(=O)CCc2cn(C)c3ccccc23)cc1OC,inactive
11,CC(NC(=O)Cn1ncc(Cl)c(Cl)c1=O)C12CC3CC(CC(C3)C1)C2 (stereo not drawn),active: 10.3 µM
12,CCOc1ccc2nc(N3CCCC(C(=O)NCCCN4C(C)CCCC4C)C3)sc2c1 (stereo not drawn),"inconclusive [cytotoxic, single point]"
13,COc1cc(C(=O)OCC#N)ccc1OCc1c(C)noc1C,active: 25.9 µM
14,Cc1ccc(C2CC(c3ccccc3)=NN2c2ccc(S(N)(=O)=O)cc2)cc1 (stereo not drawn),"inconclusive [cytotoxic, single point]"
15,CC(C)Cn1cnc2c(SCc3ccccc3Cl)nc(N)nc21,"inconclusive [cytotoxic, single point]"
16,O=C(N/N=C/c1ccc(C(F)(F)F)cc1)c1ccc(O)cc1,"inconclusive [cytotoxic, single point]"
17,CC(C)(C)c1ccc(C(=O)O/N=C(\N)Cc2cccs2)cc1,"inconclusive [cytotoxic, single point]"
18,O=C(Cc1ccccc1F)NCC(c1ccco1)N1CCCCC1 (stereo not drawn),inactive
19,Cc1ccc(NC(=O)c2cc(-c3cc(F)ccc3OCC3CCCO3)n[nH]2)cc1NS(C)(=O)=O (stereo not drawn),"inconclusive [cytotoxic, single point]"
20,COc1ccc(/C=C/c2ccc(=O)n(Cc3ccccc3)n2)cc1,"inconclusive [cytotoxic, partial curve]"
21,CNC(=S)N(Cc1ccc(OC)cc1)Cc1cc2cccc(C)c2[nH]c1=O,inactive
22,CC1(C)CC(=O)C=C(c2ccc(COC(=O)C(c3ccccc3)c3ccccc3)cc2)C1=O,"inconclusive [cytotoxic, single point]"
23,CC(C)Oc1ccc(S(=O)(=O)N2CCOCC2)cc1NC(=O)CN1C(=O)c2ccccc2C1=O,inactive
24,Cc1cc(C)cc(OC(=O)CS(=O)c2ccc(C(F)(F)F)cc2[N+](=O)[O-])c1 (stereo not drawn),active: 23.1 µM
